# ± gives the standard deviation of the averaged measurements. Some of the results follow.
# System: PfAP2-LT AP2 domain (GST-tagged)
# Assay: gcPBM binding intensity (ln(normalized median fluorescence intensity)); higher = stronger DNA binding
# Summary of the method: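 In this array assay, P. falciparum DNA-binding domains with a GST tag, expressed in E. coli, were applied for 1 h to primer-extended double-stranded 36-bp intergenic genomic probes and negative controls on an Agilent 4 × 180k array. Bound protein was visualised with Alexa488 anti-GST antibody at 488 nm. Binding intensity is the highest Masliner-normalised natural-log median intensity across replicate spots of either probe orientation.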
row,Sequence,gcPBM binding intensity (ln)
1,ATAAAAATTGATTATACACACGCGCCCAGACAACAA [CACACA_site5870],9.31 ± 0.35
2,TTTTTTTTTTTTTTTTGTACTCATATCTACTATCAT [XGTACX_site274],8.67 ± 0.48
3,ACAAGGTTTACGGGTAGTACAAATTTTTGAACATCT [XGTACX_site4739],8.65 ± 0.51
4,AGCCAAACCTTAAATTTAGCAATAAGTTTACAGGTC [CACACA_negctrl_site360],8.68 ± 0.42
5,ATTAAAAGTTTATACAAATAAAAAACAAAACAAAAA [CACACA_negctrl_site1030],8.78 ± 0.54
6,AAGGATCACAGACAAACACACATATATATATATATA [CACACA_site4469],10.1 ± 0.16
7,TTTTGACCATATCTGTTGCACTTTTGTGCTATTCGA,8.88 ± 0.61
8,CATTATGTCGTAAATACACACATACATATACATACA [CACACA_site8383],9.12 ± 0.26
9,AAATAATTTGTTGACACACACACACCCATACAGATA [CACACA_site5291],9.77 ± 0.14
10,TAAATTTTTTCCTCCTGTACTTATTATATTTTTTTG [XGTACX_site1572],8.73 ± 0.51
11,ATTAATTCGTTTTGTACACACATAATGAGTAATTTA [CACACA_site7118],8.94 ± 0.4
12,ATGTGTGTATACATCAATTATATATATATTATGTAT [GTGCAC_negctrl_site720],9.19 ± 0.3
13,AAAATAAAAATAACAACACACATATACTATAATATT [CACACA_site2769],9.14 ± 0.4
14,TATGTTAAAAAAAAATGTACATATGTTTTTGTTAAA [XGTACX_site4754],8.39 ± 0.55
15,GACCCATTATTTTATTGTACTTTTATTATAACGTGA [XGTACX_site156],8.86 ± 0.41
16,AAATGAATAATGATATACAAACAAATCATGTGTTAA [XGTACX_negctrl_site150],8.81 ± 0.48
17,TTTCCCCCATATAATGAACACACACCCTCCTCATAA [CACACA_site8110],9.84 ± 0.41
18,ATACATTCAAAATATACACACATATATATATAATAT [CACACA_site950],9.06 ± 0.3
19,ATTTTTTTTAATTTGTACAAATTTTGTTCACAATTT [CACACA_negctrl_site1301],8.91 ± 0.52
20,TACCATGTTCAAATTACACACATATAATCTAATATA [CACACA_site2008],8.81 ± 0.32
21,TTTATTATTATATTATTTTAATTTTTCTTTAGTACA [GTGCAC_negctrl_site392],8.38 ± 0.53
22,CATTTCATTTCTTAATGTACTTTATTCCACCACATA [XGTACX_site5943],8.81 ± 0.52

row,Sequence,gcPBM binding intensity (ln)
1,ATAAATATATGAAGTTGTACAAATAATTAACATTAT [XGTACX_site5740],9.08 ± 0.49
2,AAATTAAATAAATTTACACACTAAAAATTACATATA [CACACA_site1054],8.55 ± 0.45
3,TTATATATGTATTAATGTACATAGTTGAGAAAGGTA [XGTACX_site1511],8.78 ± 0.34
4,AAAGGGACATATATATCACACACAAAAATTAGTCCC [CACACA_site8897],9.39 ± 0.44
5,TAATATCTACATATATGTACATATATATATATATAT [XGTACX_site7979],9.48 ± 0.028
6,GGAAGCTAATTACACACATGCATATTTTTTTTTCAA [TGCATGCA_site548],9.04 ± 0.36
7,ATAATATAGAACAATACATGCAAATGGCTTAAATTT [TGCATGCA_site521],8.94 ± 0.47
8,ATGGGACAGATATATACACACATATAAATATAAATA [CACACA_site6684],9.2 ± 0.46
9,TAAATATAATAAGAACAAACAAAATAGTACAATATA [TGCATGCA_negctrl_site364],8.99 ± 0.42
10,TTTTTTTTAAATTGTGGTACACAAATTCATATATAT [XGTACX_site8944],8.54 ± 0.44
11,TGTTAACTTAAAAAAATACCTACGGAAAAATCACAA [TGCATGCA_negctrl_site433],8.58 ± 0.42
12,GTCATATTATTATTACGTACTTAAATATATAATATA [XGTACX_site3405],8.73 ± 0.38
13,AAAAGAAAAAAAAGTACACACATGTATATTAATCGT [CACACA_site2528],9.37 ± 0.4
14,TATGTGTATAATAAAAGTACATATATTATTATATAA [XGTACX_site8556],8.68 ± 0.42
15,TATTTCGTAATTTAATAATATACAAGAAATATATAT [XGTACX_negctrl_site143],8.38 ± 0.36
16,TAAAATAATAAAACAACACACAAATAGTTAAAATAG [CACACA_site1680],9.07 ± 0.45
17,ATTGACGTCATATAAACATGCACATTTTGGATGTTT [TGCATGCA_site985],8.86 ± 0.36
18,CATATAATAAAAAATGTACACACATAAGAAAATTTA [CACACA_site8943],9 ± 0.48
19,AATAAATAAAAAATTACACACATATTTATAAATATA [CACACA_site7584],8.82 ± 0.49
20,AAGATAAACTTTTTTAATTAATTTAATTTTTTTTTT [GTGCAC_negctrl_site386],8.31 ± 0.64
21,CACAAAAATAAATATAAACACACAATAAATAAATAA [CACACA_site8197],9.05 ± 0.47
22,TAAAATAAGTTAAAAAGTACATAATTATAATAAATA [XGTACX_site8108],8.6 ± 0.52
